Laboratory results from the supplement of paper PMC12217912.
The list shows a part of the results. The full chains were built here from the parent and the listed change. Values near 0.05 are background.

B1: TEV protease; numbered along this chain (parent)
chain: MGESLFKGPRDYNPISSSICHLTNESDGHTTSLYGIGFGPFIITNKHLFRRNNGTLVVQSLHGVFKVKDTTTLQQHLVDGRDMIIIRMPKDFPPFPQKLKFREPQREERICLVTTNFQTKSMSSMVSDTSCTFPSGDGIFWKHWIQTKDGQCGSPLVSTRDGFIVGIHSASNFTNTNNYFTSVPKNFMELLTNQEAQQWVSGWRLNADSVLWGGHKVFMVKPEEPFQPVKEATQL

Variants of: B1
Experiment: raw area under fraction-flipped curve 0-4 h after induction (AUC4h, not background-subtracted), DNA-recorder readout of cleavage of the substrate (dimensionless); higher = more cleavage of the substrate by the protease variant
Details: temperature: 34 °C; time window: 0-4 h after rhamnose induction
Procedure: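 In vivo DNA recorder in E. coli TOP10(DE3) ΔrhaA at 34 °C. Each TEVp single-site mutant (parent TEVp 0) is paired with a single-site variant of the 7-mer TEVs (canonical ENLYFQ|S). The substrate sits between flexible linkers in a Bxb1-sfGFP-TEVs-SsrA fusion, so cleavage stabilises Bxb1 and speeds flipping of a recombination array, read by NGS. The value is the raw area under the fraction-flipped curve over 0-4 h after rhamnose induction (AUC4h), with ≥20 reads per time point. It is not background-subtracted; inactive controls average about 0.047.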
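Note: Bxb1 expression induced with 0.2% (w/v) L-rhamnose at OD600 near 0.5, cultures sampled hourly, flipped fraction per protease–substrate barcode pair counted by paired-end Illumina sequencing.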

| Variant | area with substrate ENLYFQA | area with substrate ENLYFQC | area with substrate ENLYFQH | area with substrate ENLYFQI | area with substrate ENLYFQK | area with substrate ENLYFQL | area with substrate ENLYFQM | area with substrate ENLYFQR | area with substrate ENLYFQS | area with substrate ENLYFQW | area with substrate ENLYFQF | area with substrate ENLYFQV | area with substrate ENLYFQN | area with substrate ENLYFQT | area with substrate ENLYFQG | area with substrate ENLYFQD | area with substrate ENLYFQP | area with substrate ENLYFQQ | area with substrate ENLYFQY | area with substrate ENLYFQE |
| --- | --- | --- | --- | --- | --- | --- | --- | --- | --- | --- | --- | --- | --- | --- | --- | --- | --- | --- | --- | --- |
| MGESLFKGPRDYNPISSSICHLTNESDGHTTSLYGIGFGPFIITNKHLFRRNNGTLVVQSLHGVFKVKDTTTLQQHLVDGRDMIIIRMPKDFPPFPQKLKFREPQREERICLVTTNFQTKSMSSMVSDTSCTFPSGDGIFWKHWIQTKDGQCGSPLVSTRDGFIVGIHSASNFTNTNNYFTSVPKNFMELLTNQEAQQWVSGWRLNGDSVLWGGHKVFMVKPEEPFQPVKEATQL [A207G] | 0.105 | 0.12 | 0.0884 | 0.0576 | 0.0626 | 0.0643 | 0.0784 | 0.0595 | 0.108 | 0.0639 |  |  |  |  |  |  |  |  |  |  |
| MGESLFKGPRDYNPISSSICHLTNESDGHTTSLYGIGFGPFIITNKHLFRRNNGTLVVQSLHGVFKVKDTTTLQQHLVDGRDMIIIRMPKDFPPFPQKLKFREPQREERICLVTTNFQTKSMSSMVSDTSCTFPSGDGIFWKHWIQTKDGQCGSPLVSTRDGFIVGIHSASNFTNTNNYFTSVPKNFMELLTNQEAQQWVSGWRLNHDSVLWGGHKVFMVKPEEPFQPVKEATQL [A207H] | 0.0881 | 0.106 |  |  |  |  |  | 0.0517 | 0.0958 |  | 0.0633 | 0.0602 |  |  |  |  |  |  |  |  |
| MGESLFKGPRDYNPISSSICHLTNESDGHTTSLYGIGFGPFIITNKHLFRRNNGTLVVQSLHGVFKVKDTTTLQQHLVDGRDMIIIRMPKDFPPFPQKLKFREPQREERICLVTTNFQTKSMSSMVSDTSCTFPSGDGIFWKHWIQTKDGQCGSPLVSTRDGFIVGIHSASNFTNTNNYFTSVPKNFMELLTNQEAQQWVSGWRLNQDSVLWGGHKVFMVKPEEPFQPVKEATQL [A207Q] | 0.0985 | 0.12 | 0.0769 | 0.0442 | 0.0636 |  | 0.108 | 0.0514 | 0.101 | 0.0634 |  |  | 0.0866 | 0.072 |  |  |  |  |  |  |
| MGESLFKGPRDYNPISSSICHLTNESDGHTTSLYGIGFGPFIITNKHLFRRNNGTLVVQSLHGVFKVKDTTTLQQHLVDGRDMIIIRMPKDFPPFPQKLKFREPQREERICLVTTNFQTKSMSSMVSDTSCTFPSGDGIFWKHWIQTKDGQCGSPLVSTRDGFIVGIHSASNFTNTNNYFTSVPKNFMELLTNQEATQWVSGWRLNADSVLWGGHKVFMVKPEEPFQPVKEATQL [Q197T] | 0.0959 |  |  |  | 0.0628 |  | 0.0642 | 0.0474 | 0.105 | 0.0794 | 0.0486 |  |  |  | 0.0899 |  |  |  |  |  |
| MGESLFKGPRDYNPISSSICHLTNESDGHTTSLYGIGFGPFIITNKHLFRRNNGTLVVQSLHGVFKVKDTTTLQQHLVDGRDMIIIRMPKDFPPFPQKLKFREPQREERICLVTTNFQTKSMSSMVSDTSCTFPSGDGIFWKHWIQTKDGQCGSPLVSTRDGFIVGIHSASNFTNTNNYFTSVPKNFMELLTNQEAQQWVSGIRLNADSVLWGGHKVFMVKPEEPFQPVKEATQL [W203I] | 0.0589 | 0.0615 |  | 0.0568 | 0.0657 | 0.04 |  | 0.0344 | 0.0674 |  | 0.0606 | 0.0581 | 0.0501 | 0.0561 | 0.0473 | 0.0765 |  |  |  |  |
| MGESLFKGPRDYNPISSSICHLTNESDGHTTSLYGIGFGPFIITNKHLFRRNNGTLVVQSLHGVFKVKDTTTLQQHLVDGRDMIIIRMPKDFPPFPQKLKFREPQREERICLVTTNFQTKSMSSMVSDTSCTFPSGDGIFWKHWIQTKDGQCGSPLVSTRDGFIVGIHSASNFTNTNNYFTSVPKNFMELLTNQEAQMWVSGWRLNADSVLWGGHKVFMVKPEEPFQPVKEATQL [Q198M] | 0.105 | 0.109 | 0.0991 | 0.0484 | 0.0611 | 0.0553 | 0.12 | 0.0604 | 0.0956 | 0.0614 |  | 0.0581 |  | 0.0555 | 0.0958 |  | 0.0626 | 0.0809 | 0.0738 |  |
| MGESLFKGPRDYNPISSSICHLTNESDGHTTSLYGIGFGPFIITNKHLFRRNNGTLVVQSLHGVFKVKDTTTLQQHLVDGRDMIIIRMPKDFPPFPQKLKFREPQREERICLVTTNFQTKSMSSMVSDTSCTFPSGDGIFWKHWIQTKDGQCGSPLVSTRDGFIVGIHSASNFTNTNNYFTSVPKNFMELLTNQEAQQWVSPWRLNADSVLWGGHKVFMVKPEEPFQPVKEATQL [G202P] | 0.0624 |  | 0.0551 | 0.0579 | 0.0472 | 0.0625 | 0.0631 | 0.0719 | 0.06 | 0.039 |  |  | 0.0501 | 0.0581 | 0.0625 | 0.0723 | 0.0581 |  |  | 0.0687 |
| MGESLFKGPRDYNPISSSICHLTNESDGHTTSLYGIGFGPFIITNKHLFRRNNGTLVVQSLHGVFKVKDTTTLQQHLVDGRDMIIIRMPKDFPPFPQKLKFREPQREERICLVTTNFQTKSMSSMVSDTSCTFPSGDGIFWKHWIQTKDGQCGSPLVSTRDGFIVGIHSASNFTNTNNYFTSVPKNFMELLTNQEAQQWVSDWRLNADSVLWGGHKVFMVKPEEPFQPVKEATQL [G202D] | 0.0875 |  |  |  | 0.0531 | 0.053 |  |  | 0.0688 | 0.0602 |  |  | 0.0701 |  | 0.0846 |  |  |  | 0.055 |  |
| MGESLFKGPRDYNPISSSICHLTNESDGHTTSLYGIGFGPFIITNKHLFRRNNGTLVVQSLHGVFKVKDTTTLQQHLVDGRDMIIIRMPKDFPPFPQKLKFREPQREERICLVTTNFQTKSMSSMVSDTSCTFPSGDGIFWKHWIQTKDGQCGSPLVSTRDGFIVGIHSASNFTNTNNYFTSVPKNFMELLTNQEAQQWVSGWRLNAPSVLWGGHKVFMVKPEEPFQPVKEATQL [D208P] | 0.0638 | 0.0867 |  | 0.0365 | 0.0609 |  |  | 0.0344 | 0.0762 |  | 0.0709 | 0.0581 |  | 0.0565 |  | 0.0554 |  |  |  | 0.0551 |
| MGESLFKGPRDYNPISSSICHLTNESDGHTTSLYGIGFGPFIITNKHLFRRNNGTLVVQSLHGVFKVKDTTTLQQHLVDGRDMIIIRMPKDFPPFPQKLKFREPQREERICLVTTNFQTKSMSSMVSDTSCTFPSGDGIFWKHWIQTKDGQCGSPLVSTRDGFIVGIHSASNFTNTNNYFTSVPKNFMELLTNQEAQQWVSGWSLNADSVLWGGHKVFMVKPEEPFQPVKEATQL [R204S] | 0.174 | 0.106 |  | 0.0588 | 0.0694 | 0.0547 | 0.0687 | 0.0723 | 0.109 |  | 0.088 |  | 0.1 | 0.0679 | 0.124 | 0.0881 | 0.0549 | 0.136 | 0.0964 |  |
